# Some of the results follow.
# Assays:
# Assay in all cases: glycan array binding signal (z-score within array); higher = stronger binding
# Settings in all cases: glycan notation: IUPAC condensed, linker removed
# [1] = target: GlcNAc(a1-6)Gal(b1-4)GlcNAc
# How it was run: (§1)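 Columns mapping to the same glycan were averaged after glycan names were converted to IUPAC-condensed notation. The data come from 3228 arrays in the Consortium for Functional Glycomics database, limited to those with an available protein sequence. Binding is reported as a within-array Z-score averaged across arrays of one protein sequence and across linkers.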
# [2] = target: GlcNAc(b1-2)Gal(b1-3)GalNAc
# How it was run: as §1
# [3] = target: GlcNAc(b1-2)Man(a1-3)[GlcNAc(b1-2)Man(a1-6)]Man(b1-4)GlcNAc(b1-4)GlcNAc
# How it was run: as §1
# [4] = target: GlcNAc(b1-2)Man(a1-3)[GlcNAc(b1-2)Man(a1-6)]Man(b1-4)GlcNAc(b1-4)[Fuc(a1-6)]GlcNAc
# How it was run: as §1
# [5] = target: GlcNAc(b1-2)Man(a1-3)[GlcNAc(b1-4)][GlcNAc(b1-2)Man(a1-6)]Man(b1-4)GlcNAc(b1-4)GlcNAc
# How it was run: as §1
# [6] = target: GlcNAc(b1-2)Man(a1-3)[GlcNAc(b1-4)][GlcNAc(b1-2)Man(a1-6)]Man(b1-4)GlcNAc(b1-4)[Fuc(a1-6)]GlcNAc
# How it was run: as §1
# [7] = target: GlcNAc(b1-2)[GlcNAc(b1-4)]Man(a1-3)[GlcNAc(b1-2)Man(a1-6)]Man(b1-4)GlcNAc(b1-4)GlcNAc
# How it was run: as §1
# [8] = target: GlcNAc(b1-2)[GlcNAc(b1-4)]Man(a1-3)[GlcNAc(b1-4)][GlcNAc(b1-2)Man(a1-6)]Man(b1-4)GlcNAc(b1-4)GlcNAc
# How it was run: as §1
# [9] = target: GlcNAc(b1-2)[GlcNAc(b1-4)]Man(a1-3)[GlcNAc(b1-4)][GlcNAc(b1-2)[GlcNAc(b1-6)]Man(a1-6)]Man(b1-4)GlcNAc(b1-4)GlcNAc
# How it was run: as §1
# [10] = target: GlcNAc(b1-2)[GlcNAc(b1-4)]Man(a1-3)[GlcNAc(b1-4)][GlcNAc(b1-2)[GlcNAc(b1-6)]Man(a1-6)]Man(b1-4)GlcNAc(b1-4)[Fuc(a1-6)]GlcNAc
# How it was run: as §1
# [11] = target: GlcNAc(b1-2)[GlcNAc(b1-6)]Man(a1-6)[GlcNAc(b1-2)Man(a1-3)]Man(b1-4)GlcNAc(b1-4)GlcNAc
# How it was run: as §1
# [12] = target: GlcNAc(b1-2)[GlcNAc(b1-6)]Man(a1-6)[GlcNAc(b1-2)Man(a1-3)]Man(b1-4)GlcNAc(b1-4)[Fuc(a1-6)]GlcNAc
# How it was run: as §1
# [13] = target: GlcNAc(b1-2)[GlcNAc(b1-6)]Man(a1-6)[GlcNAc(b1-4)][GlcNAc(b1-2)Man(a1-3)]Man(b1-4)GlcNAc(b1-4)GlcNAc
# How it was run: as §1
# [14] = target: GlcNAc(b1-3)Fuc
# How it was run: as §1
# [15] = target: GlcNAc(b1-3)Gal
# How it was run: as §1
# [16] = target: GlcNAc(b1-3)Gal(b1-3)GalNAc
# How it was run: as §1
# [17] = target: GlcNAc(b1-3)Gal(b1-4)Glc
# How it was run: as §1
# [18] = target: GlcNAc(b1-3)Gal(b1-4)GlcNAc
# How it was run: as §1
# [19] = target: GlcNAc(b1-3)Gal(b1-4)GlcNAc(b1-2)Man(a1-3)[GlcNAc(b1-3)Gal(b1-4)GlcNAc(b1-2)Man(a1-6)]Man(b1-4)GlcNAc(b1-4)GlcNAc
# How it was run: as §1
# [20] = target: GlcNAc(b1-3)Gal(b1-4)GlcNAc(b1-2)Man(a1-3)[GlcNAc(b1-3)Gal(b1-4)GlcNAc(b1-2)Man(a1-6)]Man(b1-4)GlcNAc(b1-4)[Fuc(a1-6)]GlcNAc
# How it was run: as §1
# [21] = target: GlcNAc(b1-3)Gal(b1-4)GlcNAc(b1-2)[GlcNAc(b1-3)Gal(b1-4)GlcNAc(b1-6)]Man(a1-6)[GlcNAc(b1-3)Gal(b1-4)GlcNAc(b1-2)Man(a1-3)]Man(b1-4)GlcNAc(b1-4)GlcNAc
# How it was run: as §1
# [22] = target: GlcNAc(b1-3)Gal(b1-4)GlcNAc(b1-3)Gal(b1-4)GlcNAc
# How it was run: as §1
binder,measurement,setting,value
DrGal3 (Danio rerio) (protein) MDLSDALDAPPQQNNQQAGGPVWPGQPANPVWPGQPANPTWPGQPNQPAWPGQPNQQWPGQPGQPTAPGWPGPAPQTGPYGAPGQAPQVLTVPLDFPLQNGAYNKMLITINGEVKPNAKQFTVNLRRGNDIAFHINPRFSEGGKPVIVRNSMIGNNWGREERELPSFPFVPGKPFEMKILITDTEYKVAVNKSHLLEFKHRVFELNQITGLSIYNDVTLSTVNVETLQ,glycan array binding signal (z-score),[1],-0.297
same,glycan array binding signal (z-score),[2],-0.245
same,glycan array binding signal (z-score),[3],-0.228
same,glycan array binding signal (z-score),[4],-0.229
same,glycan array binding signal (z-score),[5],-0.235
same,glycan array binding signal (z-score),[6],-0.242
same,glycan array binding signal (z-score),[7],-0.252
same,glycan array binding signal (z-score),[8],-0.292
same,glycan array binding signal (z-score),[9],-0.297
same,glycan array binding signal (z-score),[10],-0.281
same,glycan array binding signal (z-score),[11],-0.285
same,glycan array binding signal (z-score),[12],-0.247
same,glycan array binding signal (z-score),[13],-0.243
same,glycan array binding signal (z-score),[14],-0.203
same,glycan array binding signal (z-score),[15],-0.181
same,glycan array binding signal (z-score),[16],-0.216
same,glycan array binding signal (z-score),[17],-0.284
same,glycan array binding signal (z-score),[18],-0.231
same,glycan array binding signal (z-score),[19],-0.104
same,glycan array binding signal (z-score),[20],-0.135
same,glycan array binding signal (z-score),[21],-0.177
same,glycan array binding signal (z-score),[22],1.15

# — the supplement of paper PMC8728848
